Experimental data taken from PubChem BioAssay AID894 (National Center for Advancing Translational Sciences (NCATS), 2007).
Out of some 150,000 compounds screened, about 6,500 (4.3%) were called active. This list was built around the results that the source calls inconclusive (neither active nor inactive); the mix of calls is not that of the screen. Calls come from the whole dose curve; as a rule, active = well fitted inhibition curve with a large enough effect (not every such curve was filed as active); inconclusive = small, poorly fitted or top-dose-only effect, or another doubt; inactive = no such curve, though single readings can be large or run the other way. Potencies of inconclusive entries are left out as doubtful fits.

Target: 15-hydroxyprostaglandin dehydrogenase [NAD(+)] (Homo sapiens) (UniProt P15428)
Chain of UniProt P15428 (P15428 whole entry, looked up): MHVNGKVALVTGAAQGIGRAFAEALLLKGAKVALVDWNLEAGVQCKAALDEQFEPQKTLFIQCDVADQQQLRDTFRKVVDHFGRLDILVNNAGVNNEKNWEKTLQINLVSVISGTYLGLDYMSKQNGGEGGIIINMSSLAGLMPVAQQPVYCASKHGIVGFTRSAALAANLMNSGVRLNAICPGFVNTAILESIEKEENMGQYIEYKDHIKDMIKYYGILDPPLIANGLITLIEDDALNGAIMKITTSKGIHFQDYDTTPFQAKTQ
Assay: qHTS Assay for Inhibitors of HPGD (15-Hydroxyprostaglandin Dehydrogenase)
Conditions: purified HPGD, NADH fluorescence kinetic, PGE2 substrate; activity change, negative = inhibition: stronger effect = lower value
In short: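 20 nM HPGD preincubated 15 min at room temperature with compound in 50 mM Tris-HCl pH 8, 0.01% Tween 20. Started with 1 mM NAD+ and 30 uM prostaglandin E2; NADH fluorescence (360/450 nm) read 5 times over 30-s intervals, last minus first.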
% is set by controls: 0 for no effect and ±100 for the full control effect; potency is the fitted concentration of half-maximal effect; tags give direction and shape of the fitted curve.

Structure (SMILES)	Potency	activity change, negative = inhibition
CCCCn1c(=O)c(Cc2ccccc2)c(O)c2ccccc21	inconclusive [inhibitor, single point]	–
COc1ccc(C(=O)Nc2ccccc2C(=O)N/N=C/c2cccc3ccccc23)cc1	inconclusive [inhibitor, single point]	–
COc1ccc(OC)c(-n2c(-c3cc(-c4ccccc4)n[nH]3)n[nH]c2=S)c1	inconclusive [inhibitor, partial curve]	–
O=C(N/N=C/c1ccc(N2CCCCC2)o1)c1ccccc1[N+](=O)[O-]	active: 10 µM	–
CCN(CC)CCCC(C)n1c(-c2ccccc2)nc2c(NCc3ccccc3)nc(C)nc21 (stereo not drawn)	inconclusive [inhibitor, partial curve]	–
COc1ccc2[nH]c3c(=O)n(/N=C/[C@H]4C(C)C=C(C)CC4C)c(=O)[nH]c3c2c1 (stereo partly drawn)	inconclusive [inhibitor, partial curve]	–
Cc1cccc2cc3ccc4ccccc4c3cc12	inconclusive [inhibitor, partial curve]	–
Nc1ccc(N)c(Cl)c1	inconclusive [inhibitor, single point]	–
O=C(NCc1ccco1)c1ccc2nc3sc4c(c3c(=O)n2c1)CCCC4	inconclusive [inhibitor, partial curve]	–
CCOC(=O)c1cnn(-c2ccccc2)c1N	inconclusive [inhibitor, partial curve]	–
CCn1cc(C(=O)N2CC=C(c3ccccc3)CC2)c(=O)c2ccc(C)nc21	inconclusive [inhibitor, partial curve]	–
CC(=O)c1ccc2c(c1)c1ccccc1n2CC(C)C	inconclusive [inhibitor, partial curve]	–
COc1ccc(N2CCN(C(=O)c3ccc(COc4ccc5c(C)cc(=O)oc5c4)cc3)CC2)cc1	inconclusive [inhibitor, single point]	–
Cc1cccc(C(=O)Oc2csc(=S)n2C(=O)c2cccc(C)c2)c1	active: 14.1 µM	–
Cc1cccc(C2=NN(c3ccccc3)[C@@H](C(=O)N3CCOC3=O)[C@@H]2C)c1	inconclusive [inhibitor, partial curve]	–
Cc1cc(C)c2c(=O)[nH]c(SCC(=O)N3CCCCC3)nc2n1	inconclusive [inhibitor, partial curve]	–
COc1cc(C(=O)NC(=S)NNC(=O)c2cnccn2)cc(OC)c1OC	inconclusive [inhibitor, partial curve, poor fit]	–
COc1ccccc1Nc1nc(-c2sc(NC(=O)c3ccccc3)nc2C)cs1	inconclusive [inhibitor, partial curve]	–
COC(=O)c1c(NC(=O)C2COc3ccccc3O2)sc2c1CCN(C(C)=O)C2 (stereo not drawn)	inconclusive [inhibitor, single point]	–
CCNc1ncc2nc(C)c(=O)n(Cc3cccc(OC)c3)c2n1	inconclusive [inhibitor, partial curve]	–
O=C(C1Cc2ccccc2CN1S(=O)(=O)c1cccs1)N1CCCCC1 (stereo not drawn)	–	inactive: -14.7%
c1coc(-c2nnc(-c3cccs3)o2)c1	inconclusive [inhibitor, partial curve]	–

Structure (SMILES)	Potency	activity change, negative = inhibition
CCOC(=O)c1cnn(-c2nc(-c3ccccc3F)cs2)c1C(F)(F)F	inconclusive [inhibitor, single point]	–
Cc1onc(-c2ccccc2)c1C(=O)N/N=C/c1ccc([N+](=O)[O-])s1	inconclusive [inhibitor, single point]	–
COc1ccc(CC(=O)Nc2ccc(-c3cn4ccccc4n3)cc2)cc1OC	inconclusive [inhibitor, partial curve]	–
COc1ccc2cc3cc(C(=O)NCc4ccco4)oc3nc2c1	inconclusive [inhibitor, partial curve]	–
Cc1nnc(SC2CC(=O)N(c3ccccc3)C2=O)s1 (stereo not drawn)	active: 12.6 µM	–
CC(=O)c1ccc(N2CCN(C(=O)c3ccc(Br)cc3)CC2)c(F)c1	active: 28.2 µM	–
CC(C)c1ccc2occ(-c3nn[nH]n3)c(=O)c2c1	–	inactive: -15.9%
c1csc(C2=Nn3c(nnc3-c3ccncc3)SC2)c1	active: 28.2 µM	–
COc1cc(N=Nc2cccc(S(N)(=O)=O)c2)c2ccccc2c1N	–	inactive: -11.6%
COc1ccc2nc(-n3c(O)c(C4=c5ccccc5=NC4=O)[nH]c3=S)sc2c1	–	inactive: -13.5%
COCCN(C(=O)CNC(=O)c1cccs1)C(C(=O)NC1CCCCC1)c1ccco1 (stereo not drawn)	–	inactive: -10.6%
Cc1ccc(/C=C/C(=O)Nc2nccs2)o1	active: 25.1 µM	–
Cc1oc(/N=C/c2ccccc2O)c(C#N)c1C	–	inactive: -19.9%
Clc1ccc2[nH]c3c(NCCCN4CCOCC4)ncnc3c2c1	inconclusive [inhibitor, partial curve]	–
Cc1cn(Cc2ccccc2)c(=O)[nH]c1=O	inconclusive [inhibitor, single point]	–
CCOC(=O)CNC(=O)c1cnn2cccnc12	inconclusive [inhibitor, partial curve]	–
COc1ccc(-c2nnc(Nc3ccc(OC)c(C(=O)N4CCCCC4)c3)c3ccccc23)cc1	active: 14.1 µM	–
COC(=O)[C@@H]1C[C@@]2(O)[C@@H](O)[C@@H](O)[C@@H](O)C[C@H]2N1Cc1ccc(Cl)cc1	–	inactive: -13.6%
COc1cc(-c2nn3c(COc4ccccc4)nnc3s2)cc(OC)c1OC	inconclusive [inhibitor, partial curve]	–
COc1cc(OC)cc(-c2cc3nc(C)c(CCC(=O)O)c(=O)n3[nH]2)c1	inconclusive [inhibitor, partial curve]	–
CCOc1cc(/C=C2\C(=O)N(c3nc(-c4ccc(Br)cc4)cs3)N=C2c2ccccc2)ccc1O	inconclusive [inhibitor, partial curve]	–
